Data published in PubChem BioAssay AID1832 (Broad Institute, 2009).
Among all 300,000 compounds or so, about 1,100 (0.37%) were called active. The shares of active, inactive and inconclusive entries below differ from those in the screen.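 How the source made its calls: active means inhibition past about -25% in most replicates, and total fluorescence under double the plate's negative control median (limit read from the data); inconclusive means replicates evenly split on the limit, or fluorescence at least double controls; inactive means too little inhibition in most replicates.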

target: Zinc finger protein mex-5 (Caenorhabditis elegans) (UniProt Q9XUB2); assay: MEX-5 zinc finger RNA-binding disruptors – biochemical, C. elegans, fluorescence polarization, MLPCN library, primary screen (AID 1832); settings: MEX-5/FITC-TCR2 RNA binding, at 10 µM, hits give low values;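 further: 0% = DMSO and -100% = 5 µM competing unlabeled TCR2 RNA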
UniProt Q9XUB2, sequence (Q9XUB2 whole entry, looked up): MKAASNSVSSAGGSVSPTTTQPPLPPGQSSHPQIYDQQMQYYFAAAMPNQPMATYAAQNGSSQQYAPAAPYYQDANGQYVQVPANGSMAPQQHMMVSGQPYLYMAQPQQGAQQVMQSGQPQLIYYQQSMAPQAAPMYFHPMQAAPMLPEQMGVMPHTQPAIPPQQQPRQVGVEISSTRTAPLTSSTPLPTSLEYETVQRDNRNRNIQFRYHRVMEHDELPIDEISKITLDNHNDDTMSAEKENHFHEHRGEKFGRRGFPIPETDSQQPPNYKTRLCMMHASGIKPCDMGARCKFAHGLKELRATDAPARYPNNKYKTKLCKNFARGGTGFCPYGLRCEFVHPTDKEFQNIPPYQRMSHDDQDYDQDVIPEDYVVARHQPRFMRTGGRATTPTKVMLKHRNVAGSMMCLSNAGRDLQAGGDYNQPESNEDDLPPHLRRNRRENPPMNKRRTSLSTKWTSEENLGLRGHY

| SMILES | activity score (negative = inhibition of binding) |
| --- | --- |
| C/C(=N\NC(=O)c1c(Br)cnn1C)c1ccc(NC(=O)c2ccc(F)cc2)cc1 | inactive: -1.38% |
| O=C(c1ccc2c(c1)OCO2)N1CCC(Cc2ccccc2)CC1 | inactive: 2.18% |
| COc1cc2nc3c4ccccc4n(CC#N)c3nc2cc1OC | inactive: -0.203% |
| CCCC(=O)Nc1sc(C)c(C)c1C#N | inactive: -0.394% |
| CCC(=O)Nc1ccc(C(=O)CSc2nnc(-c3ccccc3F)n2C2CC2)cc1 | inactive: 0.629% |
| CC1=Nc2ccccc2/C1=C\c1nc(-c2ccc(F)cc2)oc1O | active: -36.3% |
| COc1ccc(/C=C2\SC(c3ccc(C)cc3)=NC2=O)cc1OC | inconclusive: -39.8% [fluorescent] |
| N#CC(C#N)=C1C=C2C=C(N3CCCCCC3)CCC2CC1 (stereo not given) | inconclusive: 2.06% [fluorescent] |
| CCC(=O)OC1(C)C(=O)C=C2C=C(CCCC(=O)OC)OC=C2C1=O (stereo not given) | active: -31.1% |
| C[n+]1ccc(/C=C/c2c[nH]c3ccccc23)cc1 | inconclusive: 41.8% [fluorescent] |
| O=c1c(O)c(-c2ccc(O)c(O)c2)oc2cc(O)cc(O)c12 | inconclusive: 35.3% [fluorescent] |
| O=C1CCCC2=C1Sc1ccc(Cl)cc1N2 | inconclusive: -11.3% |
| O=c1[nH]c2ccccc2nc1/C=C/c1ccc(F)cc1 | inconclusive: -21.7% |
| CCOC(=O)CNc1c(-c2ccc(OC)cc2)nc2ccc(Cl)cn12 | inactive: -11.2% |
| OCC[n+]1ccc(/C=C/c2c[nH]c3ccccc23)cc1 | inconclusive: 39% [fluorescent] |
| CN1C=CC2=C(C#N)C(N)C(C#N)(C#N)C(c3ccccc3)C2C1 (stereo not given) | inconclusive: -84.7% [fluorescent] |
| COc1ccc(/C=C/c2ccc3c(Br)ccc(O)c3n2)cc1 | inconclusive: -15.6% |
| CN1CCCc2cc3c(C(F)(F)F)cc(=O)oc3nc21 | inconclusive: -22% |
| O=C(NCc1ccncc1)c1ccc(Br)cc1 | inactive: 0.0935% |
| O=C(N/N=C/c1ccc(-c2ccc([N+](=O)[O-])cc2)o1)c1cccnc1 | inconclusive: -25% |
| CCOc1ccc2ccccc2c1C1NC(=O)N(C)C(C)=C1C(=O)OCCOC (stereo not given) | inconclusive: -21.3% |
| CCOC(=O)c1ccc(N/C=C2\CCCCC2=O)cc1 | inconclusive: -15.8% |
| COc1ccc(C(O)P(=O)(OCCC(C)C)c2ccc(N(C)C)cc2)cc1OC (stereo not given) | inactive: 1.28% |
| CC(NC(=O)CCC(=O)N1CCCCCC1)c1ccccc1 (stereo not given) | inactive: 0.825% |
| CCCCCNC(=O)C(C#N)c1nc2ccccc2nc1N1CCCC1 (stereo not given) | inconclusive: 113% [fluorescent] |
